# According to PubChem BioAssay AID686978 (National Center for Advancing Translational Sciences (NCATS), 2013):
# Among all 420,000 compounds or so, about 64,000 (15%) were called active. The inconclusive results got no clear call from the source; some entries with a clear call stand among them for comparison. Calls follow the shape of the dose curve; as a rule, active = well fitted inhibition curve with a large enough effect; inconclusive = small, poorly fitted or top-dose-only effect; inactive = flat fitted curve, though single readings scatter. Potencies of inconclusive entries are left out as doubtful fits.
# Test: qHTS for Inhibitors of human tyrosyl-DNA phosphodiesterase 1 (TDP1): qHTS in cells in absence of CPT; also: nearly all actives have a fitted effect of over 55% in size
# Conditions: DT40 Tdp1-/- hTDP1 cells, no CPT, ATP luminescence, 48 h; activity change, negative = growth inhibition: at 46.2 µM (top of the series) unless noted
# Outline: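 No-CPT arm: Tdp1-/-;hTDP1 DT40 cells (400/well) plus compounds, incubated ≥48 hr at 37 °C. Readout CellTiter-Glo luminescence.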
# % is scaled to controls: 0 for no effect and ±100 for the full control effect; potency is read from the fitted curve at half-maximal effect; tags tell the direction and shape of the fitted curve.
Compound,Potency,"activity change, negative = growth inhibition"
CCOC(=O)c1[nH]c2ccc(OCC)cc2c1CCCN1C(=O)c2ccccc2C1=O,"inconclusive [inhibitor, partial curve, poor fit]",–
CNC[C@H](Cc1ccccc1)NC[C@@H](Cc1cccc2ccccc12)NCCc1ccc(C)cc1,active: 14.6 µM,–
CCOC(=O)c1c(C)nc2c(c1-c1ccc(OC)cc1)C(=O)CC(C)(C)C2,"inconclusive [inhibitor, single point]",–
COCCn1c(=O)c(-c2ccccc2)nc2cnc(N3CCNCC3)nc21,–,inactive: -27.6%
CSc1ccccc1NC(=O)c1cc(-c2ccc3c(c2)OCO3)on1,"inconclusive [inhibitor, single point]",–
O=C(COc1ccc([N+](=O)[O-])cc1)NNC(=O)c1cccs1,–,inactive: -14.6%
CCC(C)NC(=O)Cc1c(OC)ccc2cc(Br)ccc12 (stereo unspecified),"inconclusive [inhibitor, single point]",–
COc1ccc(-c2cn3nc(N4CCC(C(=O)NCc5cccc(Cl)c5)CC4)sc3n2)cc1,–,inactive: -28.7%
Cn1c(=O)c([N+](=O)[O-])c(N2CCN(Cc3ccc4c(c3)OCO4)CC2)c2ccccc21,active: 8.2 µM,–
COc1ccc(CNc2nc3c(c(=O)n(Cc4ccc(F)cc4)c(=O)n3C)n2C)cc1,"inconclusive [inhibitor, single point]",–
COC(=O)c1ccc(Nc2nc(-c3ccc(C)cc3)nc3ccccc23)cc1,active: 7.31 µM,–
COc1ccc(-c2csc(NC(=O)c3cc(C)oc3C)n2)cc1OC,active: 18.4 µM,–
CC(NC(=O)c1cc2sccc2n1C)c1ccc2c(c1)OCCO2 (stereo unspecified),"inconclusive [inhibitor, single point]",–
COc1ccc(CCNCc2c(OC)ccc3ccccc23)cc1OC,"inconclusive [inhibitor, partial curve]",–
O=C1C2C3C=CC(C3)C2C(=O)N1CCN1CCN(S(=O)(=O)c2ccc3ccccc3c2)CC1 (stereo unspecified),"inconclusive [inhibitor, single point]",–
CS(=O)(=O)Nc1ccc(C(=O)Nc2ccc3c(c2)OCCO3)cc1,–,inactive: -15.2%
CCC(=O)N1CCc2cc(CNC(=O)Cc3ccc(OC)c(OC)c3)ccc21,"inconclusive [inhibitor, partial curve]",–
CC(C)(C)NC(=O)C1c2ccccc2OCC(=O)N1CCCN1CCOCC1 (stereo unspecified),–,inactive: 1.98%
CCC1=C(OC(=O)N(CC)CC)N2C(=O)OC(=NCCOC)[C@]2(Cc2ccccc2)[C@H]2C1=CC[C@H]1C(=O)NC(=O)[C@H]12,"inconclusive [inhibitor, single point]",–
Cc1[nH]c2ccccc2c1/C=C/c1ccc2ccccc2n1,–,inactive: -111%
O=C(Nc1ccc(NC(=O)C2CC2)nc1)c1ccccn1,"inconclusive [inhibitor, single point]",–

Compound,Potency,"activity change, negative = growth inhibition"
CCOc1ccccc1CNC(=O)C1CCN(C(=O)N2CCOc3ccc(Cl)cc32)CC1,"inconclusive [inhibitor, single point]",–
Cc1sc(NC(=O)c2ccccc2)c(C(=O)c2ccccc2)c1C,"inconclusive [inhibitor, single point]",–
Cc1ccnc(NC(=O)c2ccc3c(c2)NC(=O)C(C)S3)c1 (stereo unspecified),"inconclusive [inhibitor, partial curve]",–
O=C(NC1CC1)C1=C[C@@H](c2ccc(C(F)(F)F)cc2)C[C@@H](OCCCCO)O1,"inconclusive [inhibitor, single point]",–
O=C(N[C@@H]1CCC(=O)N(CC[C@H](Oc2ccccc2)c2ccccc2)CC1)OCc1ccccc1,"inconclusive [inhibitor, single point]",–
Cc1ccc(OCCn2cnc3cc([N+](=O)[O-])ccc3c2=O)cc1,"inconclusive [inhibitor, single point]",–
FC(F)(F)c1ccc2c(c1)ncc1c(-c3ccccc3)nn(-c3ccccc3)c12,–,inactive: 1.49%
CN(C)S(=O)(=O)c1ccc(C(=O)Nc2ccc3nc(N4CCOCC4)sc3c2)cc1,"inconclusive [inhibitor, single point]",–
Cc1ccc(-n2nc(C(=O)NCc3ccc(F)cc3Cl)c3c4ccccc4n(C)c3c2=O)cc1,"inconclusive [inhibitor, partial curve]",–
CC1Cc2ccccc2N1C(=O)CN1C(=O)NC(C)(c2ccc3c(c2)OCCO3)C1=O (stereo unspecified),"inconclusive [inhibitor, single point]",–
Cc1ccnc(NS(=O)(=O)c2ccc(Oc3ccccc3)cc2)c1,–,inconclusive: -33.3% [inhibitor]
CCOc1ccc(OCC(O)CN2CCc3ccccc3C2)cc1 (stereo unspecified),"inconclusive [inhibitor, single point]",–
CCOC(=O)[C@H]1[C@H]2COc3ccccc3[C@@H]2N2C(=O)c3ccc(Cl)cc3NC(=O)[C@@]12C,"inconclusive [inhibitor, single point]",–
NC(=O)C1(N2CCCCC2)CCN(C(=O)c2ccc(-n3cnnn3)cc2)CC1,"inconclusive [inhibitor, single point]",–
COc1ccc(C2CC(c3ccccc3)=NN2C(=O)COC(=O)c2cccc(S(=O)(=O)N(C)C)c2)cc1 (stereo unspecified),"inconclusive [inhibitor, partial curve]",–
CCOC(=O)C(C)(C)N(Cc1cccc(C)c1)S(=O)(=O)c1cccc([N+](=O)[O-])c1,"inconclusive [inhibitor, single point]",–
CCCCN(CC)CCNC(=O)c1cc2c(=O)[nH]c3ccc(C)cc3c2s1,"inconclusive [inhibitor, single point]",–
CSc1cccc(Nc2ccc(S(=O)(=O)N3CCOCC3)cc2[N+](=O)[O-])c1,"inconclusive [inhibitor, single point]",–
CCC1CCC2(CC1)NC(=O)N(CC(=O)NCc1ccc(Cl)cc1)C2=O (stereo unspecified),"inconclusive [inhibitor, single point]",–
CN(C)c1ccc(C(C(=O)NC(C)(C)C)N(C(=O)c2csnn2)C2CC2)cc1 (stereo unspecified),–,inactive: -11.1%
